# Laboratory results from article PMC12136788.
# Some of the results follow.
# T1: UNK ZnF1-3 (human, UniProt Q9C0B0 31-174)
# T1 sequence: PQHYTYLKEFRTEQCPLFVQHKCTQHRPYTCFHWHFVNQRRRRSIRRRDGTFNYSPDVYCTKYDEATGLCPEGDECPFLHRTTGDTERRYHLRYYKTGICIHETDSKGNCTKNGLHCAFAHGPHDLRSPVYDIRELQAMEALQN
# B1: chr14:31077228:31077229:+_ENSG00000092140_ENST00000206595|hu_mus|FALSE|FALSE (ssRNA)
# RNA: GGGAGUUCUACAGUCCGACGAUCAGUUGCAGAAUCUAUCUUGAUUAUAAUCUGUGCAACAUCAAUGUCUGAUACAUCAUCCAAAGUUGGUAGAGUAUUUUCUGGUCCAUAAGCAAGGCAGUUAAACAAGGUUUCAGAAAAGAACAACAGAGGAUUGAGCAUCA
# B2: chr3:131208901:131208902:-_ENSG00000114686_ENST00000264995|hu_hu|FALSE|FALSE (ssRNA)
# RNA: GGGAGUUCUACAGUCCGACGAUCUGUUAUAUUAAAGAUUUUAACUGUCUGUUUCGGCGGCAAUCCAAGUUCCCGGUAAAAUUCCAAUAUGGAUGUAGCUUUACGAAAACGUGAUACAGUUUUUCCUCCUACAGACAGGGUUGCCAACAGAGGAUUGAGCAUCA
# B3: chr20:52831857:52831858:+_ENSG00000101132_ENST00000441080|hu_mus|FALSE|FALSE (ssRNA)
# RNA: GGGAGUUCUACAGUCCGACGAUCCAGCAUGAUGUCAUCACAGGCGUCCUCUAAGUUCUGGAGAUGUUUCUUCUUCACUUCUAUUUCCUCCUUUAGCUCUGUGAUUCGACUCGUAUUCCGAGCAAAUUUGUUUAUUUUUUGCUGCAACAGAGGAUUGAGCAUCA
# B4: chr3:41268740:41268741:+_ENSG00000168036_ENST00000349496|perfect_dup|FALSE|FALSE (ssRNA)
# RNA: GGGAGUUCUACAGUCCGACGAUCCACUCUGCUUGUGGUCCACAGUAGUUUUUCGUAAGUAUAGGUCCUCAUUAUAUUUACUAAAGCUUGGGGUCCACCACUAGCCAGUAUGAUGAGCUUGCUUUCUUGGUUGCCAUAAGCUAACAACAGAGGAUUGAGCAUCA
# B5: 186303460_186303580_5415_CDS_ENSG00000047410_ENST00000367478|human|control|control (ssRNA)
# RNA: GGGAGUUCUACAGUCCGACGAUCCUGUGAUUCCACUUGUGUAGUGGGCAUCACUGUAGCUGUUGGGGUAGUAGUGGGAUUUGUAACAGUUGCAGGUGUAACCAUUGGGCGGAUACUAGCCCUGGGUGUUGACUUAUUUCCAGCCAACAGAGGAUUGAGCAUCA
# B6: chr12:16048344:16048345:+_ENSG00000023734_ENST00000419869|hu_hu|motif|central (ssRNA)
# RNA: GGGAGUUCUACAGUCCGACGAUCAGAUCGUCCAUAAGUUAUAACCAAAAUCUCUCCCUCAGGAAUAUAUUCCAUACGGCGGACAGACAUAUUAAAAUUUAGAGAUUUCACUUCUGUCAUAGUAGCAUGAUCCCAAAGUCGAACCAACAGAGGAUUGAGCAUCA
# B7: 64147695_64148393_1994_CDS_ENSG00000143952_ENST00000409558|human|control|control (ssRNA)
# RNA: GGGAGUUCUACAGUCCGACGAUCGAAUGUUUCCAUUAAUCUAGAAAGUGUUAUGAAUUCCAUGGAAUUUAGCUUCUCAAGAAAACCAUCCUUUGCUCUUGACAUGAGAAAUUUGACAGCUCGAUCAUGGCAUAUAUCUGAGGCCAACAGAGGAUUGAGCAUCA
# B8: chrX:153608698:153608699:+_ENSG00000102119_ENST00000428228|hu_mus|motif|central (ssRNA)
# RNA: GGGAGUUCUACAGUCCGACGAUCUAAAGAAGAGAAAAUGUCAUCACGCACCUGGUGAUGGAAGGUAUCAGCAUCGGCAAGUGAGGUCCCCGGCUGGCGGAAGCUCUUGGACAUGCCCACAGACUCAGGCUCCCCGUAUGUCUUCAACAGAGGAUUGAGCAUCA
# B9: 107180992_107181112_970_3pUTR_ENSMUSG00000047496_ENSMUST00000058688|mouse|control|control (ssRNA)
# RNA: GGGAGUUCUACAGUCCGACGAUCGUUCUGCAGGGAUGGUCACCACGGUGAGAGACUUCUGCUGGCUCCCUGGCAGCAGGCGGCAGCCCAUGUCUCCCGGCAGGAGUGUACGCUCCUUAGAGAUGGGCAGGGGCAGCAUGUAGCCAACAGAGGAUUGAGCAUCA
# B10: chr12:103220247:103220248:+_ENSMUSG00000041781_ENSMUST00000047357|mus_mus|motif|central (ssRNA)
# RNA: GGGAGUUCUACAGUCCGACGAUCCAGGGAAUCAAUAAUGUCCACAGAGAAGUGUUCAUCCCAGCCACAGUCCAACAAAAACCGGAACUCAUCAACCUGGAGAAGAUAGCAAAGAGCGGACUCUUCUUGAACCCCAGAGAGGGUCAACAGAGGAUUGAGCAUCA
# B11: chr2:198351390:198351391:-_ENSG00000144381_ENST00000345042|hu_hu|hu_hu_hu_mus_False|38_78 (ssRNA)
# RNA: GGGAGUUCUACAGUCCGACGAUCUCAUUCCCACCCUCCACAGAAAGGCUGCUUCUGUUCUCAUCUGUGGUGACACAGCGCUACAGUCCUGAUGCUCACAGAAUAGUAGAGAUGCCUCAGUGAUUUAAGUUGAAAGCAGGACACCAACAGAGGAUUGAGCAUCA
# B12: 82123261_82123381_3180_3pUTR_ENSMUSG00000022456_ENSMUST00000023095|mouse|control|control (ssRNA)
# RNA: GGGAGUUCUACAGUCCGACGAUCCAGUCUCCAGGAAAGGCUAAGACCAUAGGAUUAGGACCACUUCUGCUUGGUCCACUGAAUUGUGGGUCUUCCAUCUCUUUUUGUUUUUUGUUUGUCUGUGUGUUUGUUUUCCUAGUGACUCAACAGAGGAUUGAGCAUCA
# B13: chr8:104081237:104081238:+_ENSG00000155097_ENST00000518738|hu_mus|FALSE|FALSE (ssRNA)
# RNA: GGGAGUUCUACAGUCCGACGAUCAACACACAGAAUUAUGCAUACCAUGAUAUCAAGGAGGAAAAUACCUCUUUAAAUAAACUAUUCUAUUUAUAAAUAAACUCUGAUUUUUUUCAGUACACAUUUACAGACCUGAUCAAUAAACAACAGAGGAUUGAGCAUCA
# B14: chr1:220276048:220276049:+_ENSG00000067704_ENST00000302637|hu_hu|hu_hu_hu_mus_True|1_58 (ssRNA)
# RNA: GGGAGUUCUACAGUCCGACGAUCGCAAAUUGCCUGGUUGGCGGGAAUUGUCCAAGGCUGGGUGGUCCAAACUAAAAUACUAACAGGGGAUGAGGCAUCUGUAAGAGACUCCAACUUCGGAGGAGGUCUCAGGAGGGGAAAUUUCAACAGAGGAUUGAGCAUCA
# Biological target: T1, UNK ZnF1-3
# Test: nsRBNS (natural sequence RNA bind-n-seq); RBNS binding buffer (assumed for nsRBNS): 25 mM Tris pH 7.5, 150 mM KCl, 3 mM MgCl2, 0.01% Triton X-100, 500 ug/ml BSA, 20 U/ml SUPERase-In, 4 C; UNK is unkempt and MSI1 is Musashi-1; names of the RNAs are library labels; protein concentration not given here; high values mean tight binding
row,Binder,binding signal [enrichment R]
1,B1,1.29
2,B2,1.04
3,B3,0.323
4,B4,1.19
5,B5,0.808
6,B6,1.38
7,B7,0.905
8,B8,1.4
9,B9,0.916
10,B10,1.44
11,B11,1.5
12,B12,0.459
13,B13,0.527
14,B14,1.38
